# Some of the results follow.
# Test system: PfSIP2 AP2 domain 1 (GST-tagged)
# Experiment: gcPBM binding intensity (ln(normalized median fluorescence intensity)); higher = stronger DNA binding
# How it was run: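 An Agilent 4 × 180k array of primer-extended double-stranded 36-bp intergenic genomic probes, with negative controls, was incubated for 1 h with GST-tagged P. falciparum DNA-binding domains expressed in E. coli. Alexa488 anti-GST antibody detected bound protein, scanned at 488 nm. Binding intensity is the highest Masliner-normalised natural-log median intensity across replicate spots of either probe orientation.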
row,Sequence,gcPBM binding intensity (ln)
1,TGTATATAATCGAGTGCACACACAAAAAAAAAGTGA [CACACA_site8417],10.4
2,AAAAAAAAAAAAAAAACACACACATATATATATATA [CACACA_site8571],9.54
3,TTCATGTCCTATTAATGTACTCTACACACATATAAG [XGTACX_site899],7.19
4,TTTATTTATTTTTGTTGTACACTTGTATATATTATT [XGTACX_site6486],7.2
5,ATTTTATATACACTTTGTACTTATTTTATTCTTCTT [XGTACX_site4200],7.05
6,ATATATATATATAATACACACTAAAGTAACATAATA [CACACA_site5580],8.56
7,TACGGGAAAGATAAGAAACACACGGAAAATTAGACG [CACACA_site1661],7.25
8,TTTTTTAATACATATGCATGTTCAAGTACGAAAAAA [TGCATGCA_site641],7.11
9,TATTAAACTTGACACACACACACACGCATATATAAA [CACACA_site6496],7.26
10,TACGCAACCAAAAGTTGTACTAATTTTTTTTTTTTG [XGTACX_site7432],6.9
11,GGAACAAATAATATCACACATATATATATATATATA [CACACA_site5670],9.5
12,ATATATTTTATACATACACACATATAAATATTTTTT [CACACA_site7780],7.27
13,TAATAAATATATTGAAGTACTTATAAAAAGCAATAT [XGTACX_site6262],7.29
14,TAAAATAAAAAAGTAGTACACACTTCACGATATTTT [CACACA_site3896],7.32
15,TTAAAAGTAAGCAAAGTGCATATAACAAAAGTAAAG,8.19
16,AATATAAAACTTTAGAGTACTTATCATTAAAATATA [XGTACX_site4509],6.63
17,ATTAATAATGAAAAAAAACACACGGTACATTCAAAG [CACACA_site1302],7.22
18,TTGTAAGAAAGACACACACACACATATAAATATGTA [CACACA_site6516],6.94
19,TATTTAAAATAATGTGCAAAAGAATAAATAAATAAA [TGCATGCA_negctrl_site194],7.23

row,Sequence,gcPBM binding intensity (ln)
1,TTCATTTTCATATATTGTACAAAATTTTATAAGGTT [XGTACX_site4522],7.14
2,TATATAAGAACTTTTACACACATGAAAATGTAGATA [CACACA_site7711],6.78
3,TATATATATATATATACACACATACAGATATATATT [CACACA_site4629],9.79
4,ATATACACATATACATGTACAAATATATATACACAT [XGTACX_site2986],7.23
5,TTACTATTATTATTTTTTATTTTTATTTTATTTATT [TGCATGCA_negctrl_site269],6.99
6,CACTAAAAGAAACACACACACACACCCATATATATA [CACACA_site4151],7.59
7,GAATATTCAACATAATGTACAAGTATTCATTTCTTT [XGTACX_site7860],6.79
8,CAAAAATAAAAGAAATGTACAAAAAATAATAAAAAA [XGTACX_site6597],6.96
9,TAATAAACTTAAAAATGTACATATATTTATTATTAC [XGTACX_site4321],6.99
10,AAAATTCATAAATACACACACGCACATATATATATA [CACACA_site4227],9.04
11,AAAAATTTTCAAGTGTGTACATATTTTCATTTAACA [XGTACX_site6186],7.09
12,AAATATATATTCATGTGTACACACAAAAAAAAATAA [XGTACX_site4552],7.44
13,AAGAAAAAGTATCCTCTATCTTTATATAAACTATTA [TGCATGCA_negctrl_site2],6.49
14,ATGTATATATTTTTATGTACATATTTTTAATTTATA [XGTACX_site2982],6.88
15,CATACATATACTTTGTGTACATATATATATTATATA [XGTACX_site97],7.51
16,TAATAAAAAATTAAAAAAAATAAAAATAAAAATAAA [GTGCAC_negctrl_site78],6.73
17,TTTATACTTTTAAATTGTACTATAAAAAGGAATACA [XGTACX_site2537],7.26
18,TTTTTATTTAGCTAAGCATGCTAACGATGACACTTC [TGCATGCA_site79],6.88
19,AAGAAAATGTATATATGTACATACAATCAAAAGAAG [XGTACX_site3454],7.28

row,Sequence,gcPBM binding intensity (ln)
1,AAAATATATTAAGGCACACACATACAGATATATATA [CACACA_site5951],7.29
2,TTTTTTCTTTTTTTTTTTTTTTTCTTTTTTTTTTTT [GTGCAC_negctrl_site196],7.17
3,TACATACACAAATACACACACAAATACATACCCAAA [CACACA_site4550],7.27
4,TACGTGAAATTATATACACACATAAATATGGGTGTA [CACACA_site5687],6.79
5,GGTATACTCAAGTATACACACATATATATATATATA [CACACA_site5746],9.65
6,AACAATATGGATGTATGTACACATATAGAACGTTAT [XGTACX_site7142],7.18
7,TATGCATTTATGCATTGTACTTTTATAGATTCCACC [XGTACX_site7121],6.99
8,ATATTATATATACACGCACACACACTAATATATATA [CACACA_site9092],7.62
9,GAAATTTTATTACTTTTACACACCTATATATTATTC [CACACA_site9076],6.95
10,TACAAAAAAAAAGAACGTACAAAAAATTTCAAAAAT [XGTACX_site5860],6.91
11,TTAAACTATACCAAAACACACATACAAAATATAAAA [CACACA_site5494],7.09
12,TATGTATATATATTAACACACAAAAAAAAAAAAAAA [CACACA_site1812],7.28
13,ATGAACGGAAAAATATATATAAATATATATATCATG [XGTACX_negctrl_site342],6.7
14,TACATGATAGATCACACACACATATAAATATATATA [CACACA_site5562],7.2
15,TAAAATAACTCACAAAGTACAAAAATAAGCATATGA [XGTACX_site7046],6.96
16,ACATAAGACACAAATACACACAAAAATATATAACAA [CACACA_site4082],7.23
17,ATATATATATATATATGTACATAATGCATATAATAT [XGTACX_site6142],9.12
18,TTAATACTTTTTTCTGTACACACTTGATTTACTATA [CACACA_site2799],7.07
19,TAAACACCCATACATACACACATACATACACCCATA [CACACA_site5125],7.1

# — the supplement of paper PMC11417369
